Reference: PMC4336329 (PLoS ONE, 2015)
Among all 310,000 compounds or so, about 2,200 (0.71%) showed an effect of 50% or more. The effect is printed as a negative number. This is one part of the list.

The molecules below were run against human ether-à-go-go-related gene (hERG) potassium channel (human, UniProt Q12809) (assay: primary screen, population patch clamp on CHO cells stably expressing hERG).
human ether-à-go-go-related gene (hERG) potassium channel, sequence (Q12809 whole entry, looked up): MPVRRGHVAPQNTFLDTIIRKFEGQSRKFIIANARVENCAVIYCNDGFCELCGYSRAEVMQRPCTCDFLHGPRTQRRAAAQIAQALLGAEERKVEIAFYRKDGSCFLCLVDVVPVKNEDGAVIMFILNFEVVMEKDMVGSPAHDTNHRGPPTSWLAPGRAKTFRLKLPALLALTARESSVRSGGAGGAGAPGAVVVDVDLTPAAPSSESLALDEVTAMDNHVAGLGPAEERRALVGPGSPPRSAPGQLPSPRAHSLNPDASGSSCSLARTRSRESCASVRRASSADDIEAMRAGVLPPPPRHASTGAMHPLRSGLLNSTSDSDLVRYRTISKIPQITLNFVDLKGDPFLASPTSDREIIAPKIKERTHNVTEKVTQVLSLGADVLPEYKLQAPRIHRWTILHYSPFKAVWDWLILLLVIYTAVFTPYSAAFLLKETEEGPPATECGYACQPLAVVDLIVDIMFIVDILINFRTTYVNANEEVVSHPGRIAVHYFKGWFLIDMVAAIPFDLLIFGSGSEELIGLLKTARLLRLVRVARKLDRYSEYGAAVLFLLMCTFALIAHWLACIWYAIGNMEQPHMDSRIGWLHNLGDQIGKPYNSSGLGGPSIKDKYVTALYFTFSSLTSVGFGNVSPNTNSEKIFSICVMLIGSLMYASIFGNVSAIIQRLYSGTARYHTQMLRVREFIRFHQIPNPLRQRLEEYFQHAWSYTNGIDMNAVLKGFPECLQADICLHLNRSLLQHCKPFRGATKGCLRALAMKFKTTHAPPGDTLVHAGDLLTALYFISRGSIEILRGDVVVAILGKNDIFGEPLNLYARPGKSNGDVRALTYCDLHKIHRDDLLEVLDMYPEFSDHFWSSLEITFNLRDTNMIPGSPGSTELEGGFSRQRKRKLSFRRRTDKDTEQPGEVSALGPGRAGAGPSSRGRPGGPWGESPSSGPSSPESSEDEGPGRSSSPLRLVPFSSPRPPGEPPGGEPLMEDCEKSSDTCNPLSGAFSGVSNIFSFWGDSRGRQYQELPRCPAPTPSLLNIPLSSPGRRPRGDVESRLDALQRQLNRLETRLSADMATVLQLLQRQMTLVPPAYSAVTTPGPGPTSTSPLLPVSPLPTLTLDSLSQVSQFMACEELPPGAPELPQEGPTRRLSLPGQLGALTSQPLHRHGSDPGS

Row | Structure (SMILES) | hERG current change (%, negative = inhibition) at 1uM
1 | CCOc1ccc2nc(NC3=NC(C)(C)C=C(C)N3)nc(C)c2c1 | -3.64%
2 | c1ccc2c(CNc3ccc(CNc4ncn[nH]4)cc3)cccc2c1 | 10.7%
3 | O=C(O)Cc1sc(-c2cccnc2)nc1-c1ccc(Br)cc1 | 32.5%
4 | CC(C(O)c1ccccc1)N(C)CCn1cnc2c1c(=O)n(C)c(=O)n2C (stereo not shown) | 17.9%
5 | CCN(CC(=O)NCc1ccc(Cl)cc1)C(=O)c1cnc(Cl)c(Cl)c1 | 12.1%
6 | CCOc1ccc(CCNC(=O)CCS(=O)(=O)c2ccc(Cl)cc2)cc1OCC | 6.98%
7 | CCc1cc2c3c(c1)C1(C(=O)N3C(C)(C)C=C2C)C(C#N)=C(N)Oc2[nH]c(=O)[nH]c(=O)c21 (stereo not shown) | 16%
8 | CC(=O)c1cccc(NC2c3ncccc3C(=O)N2Cc2ccco2)c1 (stereo not shown) | -0.704%
9 | COc1ccc(-c2noc(CCC(=O)NC3CCCCCC3)n2)cc1 | 12.5%
10 | Cc1ccc(-n2ncc3c(NCc4cccnc4)ncnc32)cc1C | 0.0268%
11 | O=S(=O)(NCCN1CCCC1)c1cccc2cccnc12 | 7.17%
12 | COC(=O)c1cccnc1-n1c(=O)c2cccnc2n(Cc2ccc(Cl)cc2)c1=O | -3.39%
13 | Cc1ccc(-c2cc(-c3ccccc3)nc(N)c2C#N)o1 | 11.3%
14 | COC(=O)CCCCCCCCCCN1CCCCC1 | 4.36%
15 | CC(C)c1ccc(N=C(N)N=C(N)N)cc1.Cl | -7.21%
16 | Cc1cc(C(=O)CSc2nc3ccccc3[nH]2)c(C)n1Cc1ccco1 | 22.3%
17 | CCOc1ccc(-c2[nH]ncc2Oc2cccc(OC)c2)c(O)c1 | -3.96%
18 | N#Cc1c(F)cccc1NCc1cccs1 | 10%
19 | Cc1ccc(/C=C/C(=O)c2ccccc(=O)c2O)cc1C | -3.33%
20 | Cc1c(C(=O)N2CCOCC2)c(S(=O)(=O)N2CCN(c3ccc(Cl)cc3)CC2)c(C)n1C | -15.3%
21 | CCCCC(CC)COC(=O)CCCCC(=O)OCC(CC)CCCC (stereo not shown) | 14.1%
22 | O=C(NC1CCCCCCC1)c1cccc(Cl)c1 | 14.4%
23 | CSc1nc2ncc(-c3ccsc3)c(N)n2n1 | 11.6%

Row | Structure (SMILES) | hERG current change (%, negative = inhibition) at 1uM
24 | COc1ccccc1C(=O)COC(=O)CNC(=O)c1ccc(Br)o1 | 3.56%
25 | COc1ccc(C(=O)Nc2cccc(-c3cc4ccccc4oc3=O)c2)cc1[N+](=O)[O-] | 5.3%
26 | CC(=O)CSc1ncnc2c1oc1ccccc12 | 11.7%
27 | COCCNC(=O)C(c1ccco1)N(C(=O)Cn1nnc2ccccc21)c1cc(C)ccc1C (stereo not shown) | 0.501%
28 | COC(=O)c1cccc(C23CC4(C2)[C@H](CN(Cc2cccnc2)[C@@H]4c2ccccc2)C3c2ccccc2)c1 (stereo partly shown) | 8.55%
29 | S=C(Nc1ccc2snnc2c1)N1CCN(c2ccccn2)CC1 | 10%
30 | COC(=O)COC(=O)c1ccc(-n2nnnc2SC)cc1 | 11.1%
31 | O=C(Nc1ccc(NC(=O)c2ccc(Cl)cc2Cl)cc1)c1cccs1 | 12.9%
32 | O=C(NCc1ccco1)C1CCN(C(=O)Cc2ccccc2)CC1 | 11.3%
33 | COc1ccc(-c2cc(-c3ccc(C)cc3)nc(SCc3nnc(-c4ccccc4)o3)c2C#N)cc1OC | 8.98%
34 | Cc1ccc(C)c(OCCn2cc(/C=C(\C#N)C(=O)NCc3cccs3)c3ccccc32)c1 | 10.9%
35 | Cc1oc2cc(O)ccc2c(=O)c1-c1nncn1-c1ccccc1 | 11.9%
36 | CNC(=S)Nc1cc(C)ccc1OC(F)F | 9.12%
37 | COc1ccc(OC)c(NC(=S)N2CCCC2)c1 | 10.4%
38 | CNC(=O)Nc1ccccc1C(=O)Nc1ccccc1 | 4.58%
39 | COc1ccc2[nH]cc(CCNC(=O)c3ccco3)c2c1 | 9.61%
40 | Cc1cccc(NC(=S)NC(=O)Cc2ccccc2)c1C | 22%
41 | CCC(C)NC(=O)C1CCC(CNS(=O)(=O)c2ccc3c(c2)N(C(C)=O)CCO3)CC1 (stereo not shown) | 7.13%
42 | COc1ccc2nc(NC(=O)C3CCCO3)sc2c1 (stereo not shown) | 2.36%
43 | Cl.O=C(NCCCN1CCOCC1)c1cc2c(s1)CCCC2 | -10.2%
44 | Cc1ccccc1N1CC(C(=O)N2CC(C)OC(C)C2)CC1=O (stereo not shown) | 3.75%
45 | CCN(CC)S(=O)(=O)c1ccc(NCC2COc3ccccc3O2)c([N+](=O)[O-])c1 (stereo not shown) | 5.29%
46 | COc1ccc(C(=O)NC2=NCCS2)cc1 | 15.9%

Row | Structure (SMILES) | hERG current change (%, negative = inhibition) at 1uM
47 | COc1ccc(OC)c(-c2cc(-c3cccnc3)nc(N)c2C#N)c1 | 10.3%
48 | Cc1sc2nc3c(SC(C)C(=O)O)cc(C(=O)c4ccccc4O)cn3c(=O)c2c1C (stereo not shown) | 12.8%
49 | Cc1ccc(NC(=O)CN2C(=O)NC3(CCCCC3C)C2=O)cc1S(=O)(=O)N1CCCCC1 (stereo not shown) | -0.528%
50 | CC(=O)c1ccc(N2CCN(C(=O)C3CCN(C(=O)Nc4ccccc4)CC3)CC2)cc1 | 12.2%
51 | Cc1cccc(Nc2nc(-c3ccncc3)cs2)c1 | -2.6%
52 | CCc1ccc(N2C(=O)CN(Cc3ccc(OC)c(OC)c3)C2=S)cc1 | 2.78%
53 | CC(C)CCn1c(SCCc2ccccc2)nc2c1c(=O)[nH]c(=O)n2C | 10.3%
54 | Cc1sc2nc(CSc3nnc(Cc4cccs4)n3C3CCCCC3)[nH]c(=O)c2c1C | 8.21%
55 | Cc1cccn2c(=O)c3cc(C(=O)NCCC4=CCCCC4)n(C)c3nc12 | 19.3%
56 | COc1ccc(-c2nnc(SC)nc2-c2ccc(OC)c([N+](=O)[O-])c2)cc1[N+](=O)[O-] | 9.65%
57 | O=S(=O)(c1ccc(F)cc1)N1CCN(c2nc(-c3ccc(F)cc3)cs2)CC1 | 5.33%
58 | CC(=O)Nc1nc2ccc(S(=O)(=O)N3CCCC3)cc2s1 | 0.909%
59 | Cc1cc(/C=N/Nc2nc(N)ncc2[N+](=O)[O-])c(C)n1-c1ccccc1F | 19.1%
60 | COc1cc(OC)c(S(=O)(=O)Nc2ccc(C)cn2)cc1NC(C)=O | 2.23%
61 | CCc1ccc(NC(=O)NCCN2CCCCC2)cc1 | -19.9%
62 | CCS(=O)(=O)N1CCN(c2ccc([N+](=O)[O-])c(NC(C)c3ccccc3)c2)CC1 (stereo not shown) | -8.41%
63 | CCOC(=O)C1=C(N)Oc2ccccc2C12C(=O)N(CC(=O)OC)C(CC(=O)OC)=C2C(=O)OC (stereo not shown) | 9.82%
64 | CCOC(=O)c1[nH]nc2c1C(=O)N(Cc1ccccc1)C2=O | 12.9%
65 | COc1ccc(C)cc1NC(=O)Nn1cnnc1 | -5.18%
66 | O=C(O)C1Nc2c(cccc2C(F)(F)F)C2C=CCC12 (stereo not shown) | 13.2%
67 | O=C1COc2ccc(C(=O)COC(=O)CCSc3ccc(Cl)cc3)cc2N1 | 16%
68 | CCC1(C)Cc2c(C#N)c(N)n(N)c(=S)c2CO1 (stereo not shown) | 12.9%
69 | CC1(c2cnc(Nc3ccccc3)s2)CCC(=O)O1 (stereo not shown) | 11.7%

Row | Structure (SMILES) | hERG current change (%, negative = inhibition) at 1uM
70 | Cc1ccc(-c2nnc(-c3ccc4c(c3)OCO4)o2)cc1 | 0.4%
71 | CCc1ccc(NC(=O)C(=O)c2ccccc2NC(C)=O)cc1 | -4.93%
72 | COCCCNc1oc(/C=C/c2ccccc2)nc1C#N | 6.06%
73 | Cc1oc(-c2cccs2)nc1CN1CCC(CO)(CCOc2ccccc2)CC1 | -30%
74 | COC(=O)c1ccccc1SCC(=O)Nc1ccc(N2CCOCC2)cc1 | 15%
75 | COC(=O)c1sccc1NC(=O)c1ccc(OC)c(OC)c1 | 8.18%
76 | Cc1cccc(N=C2NC(=O)/C(=C/C=C/c3ccco3)S2)c1 | 11%
77 | N#CC(c1ccc(Cl)cc1)N1CCOCC1 (stereo not shown) | 12.8%
78 | CC1Nc2nc(N(C)C)[nH]c(=O)c2NC1C.Cl.O (stereo not shown) | 11.4%
79 | O=C(Nc1sc2c(c1C(=O)NCCO)CCCC2)c1ccco1 | -3.09%
80 | O=C(COC(=O)CSc1ccc2ccccc2c1Br)NC1CC1 | 17.2%
81 | O=C(COC(=O)c1cc(Cl)ccc1O)NC(=O)NCc1ccccc1 | 5.88%
82 | CCn1ccnc1CN1CCCCC1C(=O)Nc1ccc(Oc2cccnc2)cc1 (stereo not shown) | 4.5%
83 | Cc1ccc(-c2cc(C(=O)NCc3ccc4c(c3)OCO4)no2)cc1 | 8.98%
84 | CC(C)Oc1ccc(C(CC(=O)NCc2ccco2)c2ccccc2)cc1 (stereo not shown) | 3.21%
85 | Cc1[nH]c2ccc(Br)cc2c(=O)c1CN1CCOCC1 | -2.66%
86 | Cc1ccc2oc(C(F)(F)C(F)F)cc(=O)c2c1 | 12.3%
87 | COc1cc(/C=C/C2=NNC(=O)CC2)cc(OC)c1OC | 16.6%
88 | O=C(NCc1nc(-c2ccc(Cl)cc2)no1)c1ccco1 | 4.88%
89 | CC(C)c1nnc(NC(=O)C2CCCN2C(=O)Nc2ccccc2)s1 (stereo not shown) | 14.7%
90 | CC(C)Oc1ccc(-c2nc(NCC3CCCO3)c3ccccc3n2)cc1 (stereo not shown) | 13.7%
91 | CC(=O)NNc1ncnc2c1cnn2-c1ccc(C)cc1 | 7.69%
